From ChEMBL document CHEMBL4888484, “Replenishing the malaria drug discovery pipeline: Screening and hit evaluation of the MMV Hit Generation Library 1 (HGL1) against asexual blood stage Plasmodium falciparum ,using a nano luciferase reporter read-out” (2022) come the findings set out here.

In all, about 150,000 compounds went through this assay and about 540 (0.36%) showed an effect of 50% or more. The list shows a part of the results.

This test concerns Plasmodium falciparum. The test can be described thus: Primary screen in NF54 nanoGlo assay, in single point, at 2uM, 72h; a lower Z score goes with more inhibition. The following applies: timepoint 72 hour. Type of test: functional, Erythrocyte.
Take `Cc1c(-c2nnc(C(=O)NCc3ccccc3)o2)oc2c(C)cccc12`: the % Inhibition (usually the change of the read-out against control, counted positive when it falls) is -8% and the Z score is 1.22.

For `CCN1C[C@@H](S(=O)(=O)NCC(C)(C)CCCO)CC1=O`, the “% Inhibition” value is reported as 2% and the Z score is -0.35.

`COC[C@@H](O)CN(Cc1ccco1)Cc1c(C)nn(-c2ccccc2)c1Oc1ccccc1`: the “% Inhibition” value is recorded as -13% and the Z score came out at 1.51.

Take `CC(C)(C)CC(=O)N1CC[C@H]2NC(=O)N(Cc3ccccc3)C(=O)[C@H]21`: the “% Inhibition” value was 32% and the Z score is reported as -3.58.

Consider `CN1CCC(Nc2cc(-n3cccn3)nc(N)n2)C1c1ccccc1` (stereo unspecified), for which the “% Inhibition” value is -5% and the Z score was 0.92.

Take `COc1cc(CN(C)[C@H]2CCc3nnc(C)n3CC2)ccc1F`: the “% Inhibition” value was -10% and the Z score is listed as 1.55.

Turning to `Cc1ccc(CNC(=O)Cn2c(=O)n(-c3ccc(C)c(F)c3)c(=O)c3sccc32)cc1`, the “% Inhibition” value is on record as -9% and the Z score is 1.04.

With `CCn1ccc2c(CN3C[C@@H]4c5ccccc5OC[C@]4(CO)C3)cccc21`, the “% Inhibition” value is -9% and the Z score stood at 1.11.

For the molecule `Cc1ccnc(NC(=O)C(F)(F)[C@@]2(F)OC(F)(F)C(F)(F)C2(F)F)c1`, the “% Inhibition” value amounted to 7% and the Z score is -0.92.

Consider `Cc1cc(C(=O)NCc2nc(CN3CCCCC3)no2)c(C)n1C`, for which the “% Inhibition” value is recorded as -5% and the Z score is listed as 0.92.

Consider `COc1ccc(C(=O)NC2(CO)CC(C)CC(C)(C)C2)cc1-c1ccccn1` (stereo unspecified), for which the “% Inhibition” value was -4% and the Z score was 0.42.

Regarding `Cc1cccc(-n2nnnc2C2(N(C)C)CCCC2)c1`, the “% Inhibition” value was -5% and the Z score was 0.65.

Regarding `c1ccc2[nH]c(CCc3nc(C[C@H]4CCCO4)no3)nc2c1`, the “% Inhibition” value stood at 6% and the Z score was -1.12.

Regarding `CCCc1nnc2sc([C@H]3CCOC3)nn12`, the “% Inhibition” value amounted to 11% and the Z score is given as -1.56.

With `CCOC(=O)c1c(C)[nH]c(C)c1-c1csc(-c2cccc(OC)c2)n1`, the “% Inhibition” value is -7% and the Z score is recorded as 1.35.

Turning to `Cc1csc(NC(=O)C[C@H]2CCS(=O)(=O)C2)n1`, the “% Inhibition” value was -4% and the Z score came to 0.56.

As for `CC(C)N1CCC(Nc2nnc(Cc3ccccc3)o2)CC1`, the “% Inhibition” value is -6% and the Z score turned out to be 0.68.

In the case of `Cc1ccc(S(=O)(=O)Nc2nnc(-c3cc(C)oc3C)o2)c(C)c1`, the “% Inhibition” value is reported as -11% and the Z score was determined as 1.11.

`COc1c(C)cc(CNCC(C)(C)CN(C)C)cc1C`: the “% Inhibition” value is listed as -2% and the Z score was determined as 0.28.

For the molecule `O=C1C2ON(c3ccccc3)C(c3cccc4ccccc34)C2C(=O)N1c1c(Cl)cccc1Cl` (stereo unspecified), the “% Inhibition” value is reported as -8% and the Z score is given as 0.83.

Turning to `CCn1c(C)cc(C(=O)OCc2ccccc2C#N)c1C`, the “% Inhibition” value is given as -11% and the Z score was 2.1.

With `CCn1ccc(C(=O)N2CC[C@H](CCOc3ccccc3)C2)n1`, the “% Inhibition” value is given as -9% and the Z score turned out to be 1.43.

For the molecule `COc1ccc(OC)c(S(=O)(=O)N2CCC3(CC2)N=C(c2cccc(C)c2)C(=O)N3)c1`, the “% Inhibition” value is -9% and the Z score was found to be 1.13.

As to `O=C(NCc1ccccc1)C1=NN(c2ccc(Cl)cc2)c2ncccc2S1(=O)=O`, the “% Inhibition” value amounted to 11% and the Z score is given as -1.57.

With `Cn1c(N2CCCN(C(=O)c3ccc(Cl)cc3)CC2)cc(=O)n(C)c1=O`, the “% Inhibition” value is -3% and the Z score is 0.4.

Regarding `O=C(NCc1cnn(CCF)c1)c1coc2c1C(=O)NCCC2`, the “% Inhibition” value is on record as -3% and the Z score was determined as 0.65.

Take `C[C@@H](C(=O)N1CCCCCC1)S(=O)(=O)Cc1nnnn1-c1ccccc1`: the “% Inhibition” value was -11% and the Z score is 1.32.

Turning to `Cc1cc(NC(=O)CCc2ccsc2)sn1`, the “% Inhibition” value is recorded as -10% and the Z score is on record as 2.21.

In the case of `FC(F)(F)c1ccc(NCc2scnc2C2CC2)nn1`, the “% Inhibition” value is -1% and the Z score turned out to be 0.15.

Take `Cc1cc(C(=O)N[C@H](CO)[C@@H](C)O)n2nc(C)cc2n1`: the “% Inhibition” value is recorded as -3% and the Z score was determined as 0.34.

As for `C=CCC1(C(=O)NCCc2cccnc2)CCCC1`, the “% Inhibition” value is -11% and the Z score came out at 1.95.

For the molecule `Cc1oc(-c2ccsc2)nc1CN1C(=O)N[C@@H](C(C)C)C1=O`, the “% Inhibition” value came to 2% and the Z score was -0.33.

In the case of `COc1ncc(CN2C(=O)N[C@@](C)(c3cc(C)oc3C)C2=O)c(C)n1`, the “% Inhibition” value was -11% and the Z score was determined as 1.47.

With `Cc1cc2nc(N3CCN(C(=O)Cc4cccc5ccccc45)CC3)sc2cc1C`, the “% Inhibition” value came out at 6% and the Z score is reported as -0.71.

Consider `O=C(Nc1nc(-c2cccc(Br)c2)c[nH]1)c1ccc(-n2cnnn2)cc1`, for which the “% Inhibition” value stood at 9% and the Z score is -1.18.

Take `Cc1ccc(F)c2oc(C(=O)N3CC[C@H](N4CCCC4=O)C3)cc12`: the “% Inhibition” value is -7% and the Z score turned out to be 0.73.

With `CS(=O)(=O)N1CCC(COc2cc3c(nn2)CCC3)CC1`, the “% Inhibition” value is on record as -7% and the Z score was 0.94.

Take `COCCn1cncc1CNS(=O)(=O)C(C)C`: the “% Inhibition” value is reported as -3% and the Z score stood at 0.57.

For the molecule `O=C(N[C@@H](CC(F)(F)F)c1ccccc1)c1ccc2c(=O)n3c(nc2c1)CCCCCC3`, the “% Inhibition” value is given as -10% and the Z score came to 1.88.

`CN(C(=O)c1cn2cc(Cl)ccc2n1)[C@H]1CCCN(CCCc2ccccc2)C1`: the “% Inhibition” value is -8% and the Z score came out at 1.23.

In the case of `C#CCCC1(CCC(=O)N2CCCc3ccccc3C2)N=N1`, the “% Inhibition” value is -18% and the Z score came to 2.2.

Regarding `O=C(c1ccco1)N1CCN(C(=O)[C@@H]2COCC(=O)N2Cc2ccccc2)CC1`, the “% Inhibition” value is given as -4% and the Z score turned out to be 0.74.

In the case of `COCCN(C(=O)C[C@]1(c2ccccc2)CC(=O)N(CCCOc2cccnc2)C1=O)C(C)C`, the “% Inhibition” value is on record as 20% and the Z score is given as -2.6.

Regarding `COc1ccccc1N1C(=O)N(c2ccccc2Cl)C2CS(=O)(=O)CC21` (stereo unspecified), the “% Inhibition” value is given as -7% and the Z score was determined as 1.11.

For the molecule `Cc1cc(-c2nnc(Cc3cccc(Cl)c3)o2)n(C)n1`, the “% Inhibition” value was found to be 38% and the Z score is recorded as -5.56.

For the molecule `CCc1ccc(CN2CCC(Oc3cc(OC)ccc3C(=O)NCCOC)CC2)o1`, the “% Inhibition” value is 17% and the Z score is -2.38.

With `Cc1ccc(-c2cccnc2)cc1NC(=O)NC(CC1CCCO1)C(F)(F)F` (stereo unspecified), the “% Inhibition” value is 11% and the Z score was -1.43.

For `CCOCCOc1nc(-c2ccccc2F)n(-c2ccc(NS(=O)(=O)c3ccc(C)cc3)cc2)n1`, the “% Inhibition” value is listed as -7% and the Z score was determined as 0.91.

Turning to `CN(C)c1noc([C@H]2CCn3ccnc3C2)n1`, the “% Inhibition” value was -18% and the Z score came out at 2.28.

Take `O=C(c1ccccn1)N1Cc2ccccc2C1`: the “% Inhibition” value is listed as -14% and the Z score was 1.77.

With `O[C@H]1[C@@H]2CC[C@H]1CN(Cc1ccc(-c3cccc(Cl)c3)o1)C2`, the “% Inhibition” value is -7% and the Z score was found to be 1.

As for `Cc1ccc(C(C)(C)NCCC(=O)Nc2ccc(F)cc2)cn1`, the “% Inhibition” value is 11% and the Z score is reported as -1.36.

Regarding `CCCC(C)CS(=O)(=O)N1CCCC1C(N)=O` (stereo unspecified), the “% Inhibition” value was -7% and the Z score amounted to 1.34.
